Data published in PubChem BioAssay AID488969 (Vanderbilt High Throughput Screening Facility, 2010).
In all, about 110,000 compounds were measured (“z-score”: median about -0.1, highest 2% from about 2 on). Some of the results follow. Calls of active or inactive are those of the source.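 Rule for the calls: active = z-score in the third read window above 3 or below -3; inactive = the rest.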

target: Metabotropic glutamate receptor 8 (Rattus norvegicus) (UniProt P70579); assay: mGluR8 Gi/Go-coupled signaling modulation – cell-based, rat, thallium flux, HTS, primary screen (AID 488969); settings: HEK293 rat mGluR8, GIRK (G protein-gated inwardly rectifying potassium channel) thallium flux, FluoZin2; at 10 µM; stronger effect = higher value; submaximal glutamate (EC20) added with thallium
Sequence of UniProt P70579 (P70579 whole entry, looked up): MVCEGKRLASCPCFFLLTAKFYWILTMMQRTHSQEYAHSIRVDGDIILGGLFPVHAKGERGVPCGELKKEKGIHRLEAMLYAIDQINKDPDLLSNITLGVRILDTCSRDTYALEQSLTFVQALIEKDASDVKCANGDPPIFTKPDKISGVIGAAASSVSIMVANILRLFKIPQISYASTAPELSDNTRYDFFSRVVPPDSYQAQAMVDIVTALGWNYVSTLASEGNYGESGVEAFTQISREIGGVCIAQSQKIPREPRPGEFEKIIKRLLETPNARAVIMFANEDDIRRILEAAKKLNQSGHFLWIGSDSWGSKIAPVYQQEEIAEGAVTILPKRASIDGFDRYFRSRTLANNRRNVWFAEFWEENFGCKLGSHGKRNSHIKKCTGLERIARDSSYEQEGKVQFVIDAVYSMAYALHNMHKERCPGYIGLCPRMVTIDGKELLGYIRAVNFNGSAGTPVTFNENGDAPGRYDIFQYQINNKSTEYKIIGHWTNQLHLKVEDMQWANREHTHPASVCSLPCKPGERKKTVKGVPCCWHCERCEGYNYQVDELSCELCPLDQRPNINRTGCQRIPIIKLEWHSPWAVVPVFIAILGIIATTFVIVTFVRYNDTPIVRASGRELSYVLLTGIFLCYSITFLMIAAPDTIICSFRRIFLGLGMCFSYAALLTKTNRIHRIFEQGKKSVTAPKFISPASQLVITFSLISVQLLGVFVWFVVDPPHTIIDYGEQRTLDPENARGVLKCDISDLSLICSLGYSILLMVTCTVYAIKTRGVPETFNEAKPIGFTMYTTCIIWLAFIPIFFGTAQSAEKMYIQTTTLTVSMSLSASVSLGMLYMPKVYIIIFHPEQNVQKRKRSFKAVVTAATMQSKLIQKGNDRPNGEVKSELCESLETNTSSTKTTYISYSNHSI

Question: `CCCCN1C(=O)NC(NC(C)=O)(C(F)(F)F)C1=O` (stereo unspecified) was tested. Which z-score did it give?
Answer: 0.244

Question: For `CCOc1cc(C2C3=C(CCCC3=O)N(CCC(=O)O)C3=C2C(=O)CCC3)ccc1OS(=O)(=O)c1ccc(C)cc1`, which z-score is on record?
Answer: 0.309

Question: Which z-score does the source give for `O=C(CSc1nccc(=O)[nH]1)c1ccccc1Br` here?
Answer: -0.161

Question: For `CCOC(=O)c1c(-c2ccccc2)nc2c(C)cccn12`, which z-score is on record?
Answer: -0.595

Question: For `CCc1cc(-c2n[nH]c(=S)n2CC)cs1`, which z-score is on record?
Answer: -0.194

Question: With `COc1ccc(C2C3=C(CCCC3=O)Nc3nc4ccccc4n32)cc1OC` (stereo unspecified) as the compound, how does the z-score read?
Answer: 0.173

Question: How did the z-score turn out when `COc1cc2[nH]cc(C(=O)NCc3cccs3)c(=O)c2cc1OC` was run?
Answer: -0.0461

Question: With `CCOC(=O)N1CCN(C(=O)CN(Cc2ccc(Cl)cc2)S(=O)(=O)c2ccc(C)cc2)CC1` as the compound, how does the z-score read?
Answer: -0.153

Question: With `COC(=O)c1ccc(CN2C(=O)NC3(CCCc4ccccc43)C2=O)o1` (stereo unspecified) as the compound, how does the z-score read?
Answer: 0.00631

Question: With `O=c1cc(C(F)(F)F)nc(-n2[nH]c3c(c2=O)CCCC3)[nH]1` as the compound, how does the z-score read?
Answer: -1.1

Question: Which z-score does the source give for `O=c1ccccn1Cc1c(Cl)cccc1Cl` here?
Answer: -0.055

Question: Which z-score does the source give for `Cc1ccc(SCc2nc(N)nc(Nc3ccccc3C)n2)cc1C` here?
Answer: 0.0403

Question: With `Nc1nc(SCC(=O)N2CCCc3ccccc32)[nH]c(=O)c1-c1ccccc1` as the compound, how does the z-score read?
Answer: -0.51

Question: With `COc1ccc(C(=O)Nn2c(SCC(=O)NC3CCCCC3)nc3ccccc3c2=O)cc1` as the compound, how does the z-score read?
Answer: -0.335

Question: `CC/C(=N/NS(=O)(=O)c1ccc(Cl)cc1)c1ccc(O)cc1` was tested. Which z-score did it give?
Answer: -0.202

Question: `COC(=O)C1=C(C)Nc2nnnn2C1c1cccs1` (stereo unspecified) was tested. Which z-score did it give?
Answer: -0.544

Question: How did the z-score turn out when `Cc1ccc(SC(C)C(=O)Nc2cccnc2)cc1` (stereo unspecified) was run?
Answer: -0.696

Question: For `O=C(/C=C/c1ccccc1)NC(NC(=S)Nc1ccc(Cl)cc1Cl)C(Cl)(Cl)Cl` (stereo unspecified), which z-score is on record?
Answer: 0.717

Question: For `C=CCSC1=C(C#N)C(c2cccc(OC)c2)CC(=O)N1` (stereo unspecified), which z-score is on record?
Answer: -0.177

Question: For `CS(=O)(=O)Nc1ccc(S(=O)(=O)Nc2nccs2)cc1`, which z-score is on record?
Answer: 0.21

Question: Which z-score does the source give for `O=C1c2ccccc2C(=O)N1CCc1ccccn1` here?
Answer: 0.415

Question: For `O=c1ccnc(SCn2nnc3ccccc3c2=O)[nH]1`, which z-score is on record?
Answer: -0.192

Question: With `COc1ccc(C(C)(C)C)cc1NC(=O)Nc1ccc2c(c1)OCO2` as the compound, how does the z-score read?
Answer: -0.106

Question: For `COc1ccc(NS(=O)(=O)c2cccc(NC(=O)c3ccc(S(=O)(=O)N4CCCCCC4)cc3)c2)cc1`, which z-score is on record?
Answer: -1.3

Question: With `COc1cc(O)oc1C=Nc1ccc(Oc2ccccc2)cc1` as the compound, how does the z-score read?
Answer: 0.11

Question: Which z-score does the source give for `O=C(c1ccccc1)c1ccc(OCCn2cnc3ccccc3c2=O)cc1` here?
Answer: -1.13

Question: Which z-score does the source give for `CC(C)(C)NC(=O)C(c1ccncc1)N(C(=O)c1csnn1)c1ccccc1` (stereo unspecified) here?
Answer: active: 6.21

Question: Which z-score does the source give for `CCC/C(O)=C1\C(=O)CC(c2ccccc2)CC1=NC` (stereo unspecified) here?
Answer: -0.23

Question: How did the z-score turn out when `COc1ccc(-c2noc(CSc3ccc(C)cc3)n2)cc1` was run?
Answer: -0.756

Question: Which z-score does the source give for `O=C(CSCC(=O)N1CCN(c2ccccc2)CC1)Nc1nc(-c2ccc(Cl)s2)cs1` here?
Answer: 0.16

Question: `N#CNC1=NCN(Cc2ccccc2)CN1` was tested. Which z-score did it give?
Answer: 0.381
